# Measured values: PMC5533585
# These are yes or no findings as the source states them, for the method shown. In cells and extracts the contact can be indirect. Some binding calls cover weakened binding; strength is not graded here. Tags and fused reporters may be left off the sequences shown.
# T1: sfGFP-HOOK3 [1-718]-3×FLAG (human) (UniProt Q86VS8)
# T1 sequence: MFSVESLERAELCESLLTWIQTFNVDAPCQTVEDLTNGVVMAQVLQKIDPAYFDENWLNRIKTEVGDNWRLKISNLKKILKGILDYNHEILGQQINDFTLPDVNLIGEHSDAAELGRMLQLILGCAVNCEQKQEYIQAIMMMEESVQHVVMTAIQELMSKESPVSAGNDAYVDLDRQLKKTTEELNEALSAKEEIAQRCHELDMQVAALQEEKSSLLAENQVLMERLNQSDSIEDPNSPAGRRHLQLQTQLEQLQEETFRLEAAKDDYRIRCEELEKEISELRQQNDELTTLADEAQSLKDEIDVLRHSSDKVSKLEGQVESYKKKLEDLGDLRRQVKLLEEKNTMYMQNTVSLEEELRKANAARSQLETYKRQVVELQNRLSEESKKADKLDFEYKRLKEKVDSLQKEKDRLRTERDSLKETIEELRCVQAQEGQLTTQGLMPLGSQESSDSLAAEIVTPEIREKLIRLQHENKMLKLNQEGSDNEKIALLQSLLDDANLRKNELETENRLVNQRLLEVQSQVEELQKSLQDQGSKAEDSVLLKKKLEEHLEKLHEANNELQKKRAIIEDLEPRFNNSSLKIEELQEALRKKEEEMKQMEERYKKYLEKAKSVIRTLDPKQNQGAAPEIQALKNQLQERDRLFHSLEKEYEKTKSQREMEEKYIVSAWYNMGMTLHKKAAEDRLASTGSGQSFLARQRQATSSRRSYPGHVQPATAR
# T2: sfGFP-HOOK3 [553-718] with 3×FLAG (human) (UniProt Q86VS8)
# T2 sequence: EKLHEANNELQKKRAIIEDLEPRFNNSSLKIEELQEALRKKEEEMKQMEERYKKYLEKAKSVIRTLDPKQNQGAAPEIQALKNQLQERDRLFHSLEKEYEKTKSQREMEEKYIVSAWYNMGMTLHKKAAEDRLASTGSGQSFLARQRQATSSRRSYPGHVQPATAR
# Columns and labels:
# [1] = target: T1, sfGFP-HOOK3 [1-718]-3×FLAG (human); test: co-IP; transiently transfected HEK293-T cells; anti-FLAG M2 agarose, 2 hr, 4°C; elution with 3×FLAG peptide; Western blots with α-HC, α-p150, α-FAM160A2, α-KIF1C
# [2] = target: T2, sfGFP-HOOK3 [553-718] with 3×FLAG (human); test: as above
Binder,binding [1],binding [2]
"FAM160A2/FHIP (protein, UniProt Q8N612 1-972) MERMNWLSRLASRGPGHRIPQGANLQTPVMADPETCLMVFKNHWSQVVRILERQGPRAAPGGADDLSAVRNHTYQMLTLLAEDRAVPSAPTGPGPLLEFALHEDLLTRVLTWQLQWDELGDGVEERRAEQLKLFEMLVSEARQPLLRHGPVREALLTLLDACGRPVPSSPALDEGLVLLLSQLCVCVAQEPSLLEFFLQPPPEPGAAPRLLLFSRLVPFVHREGTLGQQARDALLLLMALSAGSPTVGRYIADHSYFCPVLATGLSALYSSLPRKIEVPGDDWHCLRREDWLGVPALALFMSSLEFCNAVIQVAHPLVQKQLVDYIHNGFLVPVMGPALHKTSVEEMIASTAYLELFLRSISEPALLRTFLRFLLLHRHDTHTILDTLVARIGSNSRLCMVSLSLFRTLLNLSCEDVLLQLVLRYLVPCNHVMLSQKPAVRDVDLYGRAADKFLSLIPRCCRHHAPSPPRPEHASWARGPGSPSVDSSSVTTVPRPSTPSRLALFLRQQSLGGSESPGPAPCSPGLSASPASSPGRRPTPAEEPGELEDNYLEYLREARRGVDRCVRACRTWSAPYDGERPSPEPSPFGSRTKKRSLLPEEDRNNVGEGEEEELGRRGRAGGAGEGPGHLPPPQLNGVPGSWPEGAKKVRLVPKEGAGELLEGISEGMAGLEGFGQELRELEVALSNGGTGSESPLEPPLPLEEEEAYESFTCPPEPPGPFLSSPLRTLNQLPSQPFTGPFMAVLFAKLENMLQNSVYVNFLLTGLVAQLACHPQPLLRSFLLNTNMVFQPSVKSLLQVLGSVKNKIENFAASQEDFPALLSKAKKYLIARGKLDWAEGPAAGPAPRRSDPLVKSRRPSLGELLLRHAHSPTRARQAAQLVLQPGRDGAGLGLSGGSPGASTPVLLTRGGAPERQGEALRVKNAVYCAVIFPEFLKELAAISQAHAVTSPFLLETSEEGSGPLISGCGPLNP",binds,binds
"KIF1C (protein, UniProt O43896 1-1103) MAGASVKVAVRVRPFNARETSQDAKCVVSMQGNTTSIINPKQSKDAPKSFTFDYSYWSHTSTEDPQFASQQQVYRDIGEEMLLHAFEGYNVCIFAYGQTGAGKSYTMMGRQEPGQQGIVPQLCEDLFSRVSENQSAQLSYSVEVSYMEIYCERVRDLLNPKSRGSLRVREHPILGPYVQDLSKLAVTSYADIADLMDCGNKARTVAATNMNETSSRSHAVFTIVFTQRCHDQLTGLDSEKVSKISLVDLAGSERADSSGARGMRLKEGANINKSLTTLGKVISALADMQSKKRKSDFIPYRDSVLTWLLKENLGGNSRTAMIAALSPADINYEETLSTLRYADRTKQIRCNAIINEDPNARLIRELQEEVARLRELLMAQGLSASALEGLKTEEGSVRGALPAVSSPPAPVSPSSPTTHNGELEPSFSPNTESQIGPEEAMERLQETEKIIAELNETWEEKLRKTEALRMEREALLAEMGVAVREDGGTVGVFSPKKTPHLVNLNEDPLMSECLLYHIKDGVTRVGQVDMDIKLTGQFIREQHCLFRSIPQPDGEVVVTLEPCEGAETYVNGKLVTEPLVLKSGNRIVMGKNHVFRFNHPEQARLERERGVPPPPGPPSEPVDWNFAQKELLEQQGIDIKLEMEKRLQDLENQYRKEKEEADLLLEQQRLYADSDSGDDSDKRSCEESWRLISSLREQLPPTTVQTIVKRCGLPSSGKRRAPRRVYQIPQRRRLQGKDPRWATMADLKMQAVKEICYEVALADFRHGRAEIEALAALKMRELCRTYGKPDGPGDAWRAVARDVWDTVGEEEGGGAGSGGGSEEGARGAEVEDLRAHIDKLTGILQEVKLQNSSKDRELQALRDRMLRMERVIPLAQDHEDENEEGGEVPWAPPEGSEAAEEAAPSDRMPSARPPSPPLSSWERVSRLMEEDPAFRRGRLRWLKQEQLRLQGLQGSGGRGGGLRRPPARFVPPHDCKLRFPFKSNPQHRESWPGMGSGEAPTPLQPPEEVTPHPATPARRPPSPRRSHHPRRNSLDGGGRSRGAGSAQPEPQHFQPKKHNSYPQPPQPYPAQRPPGPRYPPYTTPPRMRRQRSAPDLKESGAAV",binds,binds
